# Laboratory results as given in PubChem BioAssay AID1347073 (National Center for Advancing Translational Sciences (NCATS), 2019).
# Among all 45,000 compounds or so, about 200 (0.44%) were called active. Another 7% or so got no clear call; they are omitted. Calls come from the whole dose curve; as a rule, active = well fitted activation curve with a large enough effect; inconclusive = small, poorly fitted or top-dose-only effect; inactive = no such curve, though single readings can be large or run the other way. This is one part of the list.
# Experiment: qHTS of TDP-43 Inhibitors: NCGC Sytravon Library Screen; note: 0% is about no effect; nearly all actives have a fitted effect of over 55% in size
# Settings: yeast TDP-43 toxicity rescue, BacTiter-Glo growth, 24 h; series mostly up to 46.1 µM; growth rescue (activation): at the top concentration
# In short: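 TDP-43-expressing yeast, pregrown in raffinose, seeded at OD600 0.02 in galactose medium with compound for 24 hr at 30 deg C. Growth read by BacTiter-Glo luminescence, so rescue of toxicity appears as activation.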
row,Compound,growth rescue (activation)
1,O=C1C2C3C=CC(c4ccccc4)(C2C(=O)N1c1cccc(Cl)c1)C1C(=O)N(c2cccc(Cl)c2)C(=O)C31 (stereo not given),inactive: 8.5%
2,COc1ccc(C)cc1NC(=O)C1CCN(C(=O)c2ccco2)CC1,inactive: -8.36%
3,CC(=O)Nc1ccc2c(c1)C(C)(C)C(C)N2C (stereo not given),inactive: -11.4%
4,NS(=O)(=O)c1ccc(CNC(=O)Cc2ccccc2F)cc1,inactive: -5.33%
5,N#CC1=C2SC=C(c3ccc(Br)cc3)N2CCCC1=O,inactive: 6.44%
6,Cc1nc(NC(=O)c2ccc(-c3cc4ccccc4oc3=O)cc2)ccc1Br,inactive: 0.6%
7,CC(=O)Nc1cccc(-c2ccnc3c2CC(C)(C(=O)Nc2cccc(C(F)(F)F)c2)O3)c1 (stereo not given),inactive: -11.6%
8,CC1=C([N+](=O)[O-])C(c2ccc3c(c2)OCO3)N(C)C(=O)N1C (stereo not given),inactive: 3.36%
9,Cc1nn(C)c(Oc2ccccc2)c1CCNC(=O)CCl,inactive: 4.59%
10,Cc1c(CC(=O)NCCCC(=O)O)c(=O)oc2cc3c(cc12)CCC(C)(C)O3,inactive: 0.507%
11,O=C(OCn1nnc2ccccc2c1=O)c1cc(-c2ccccc2Cl)nc2ccccc12,inactive: 1.01%
12,O=C(COC(=O)Cc1ccccc1F)Nc1cc(S(=O)(=O)N2CCOCC2)ccc1N1CCCC1,inactive: -4%
13,COc1ccc(NC(=O)c2ccccc2SC)c(OC)c1,inactive: 18.5%
14,OCCN1CNC(=S)NC1,inactive: 7.64%
15,C[C@@H]1CN(C2CCN(Cc3nc(C(c4ccccc4)c4ccccc4)no3)CC2)C[C@H](C)O1,inactive: -1.84%
16,Nc1ccc(-c2ccc(N)c([N+](=O)[O-])c2)cc1[N+](=O)[O-],inactive: 8.24%
17,CS(=O)(=O)c1ccccc1C(=O)Nc1ccccc1Cc1ccccc1,inactive: -46.2%
18,CCc1nc2ccc(C(=O)N3CCCC(C(N)=O)C3)cn2c1N(CCC(C)C)CCN(C)C (stereo not given),inactive: 5.59%
19,O=C(NC(=S)Nc1ccccc1N1CCOCC1)c1ccc([N+](=O)[O-])cc1,inactive: 14.9%
20,CC1CCN(C(=O)CSc2nnc(-c3ccccc3F)o2)CC1,inactive: 21.2%
21,CCOC(=O)c1cnc(SCC(=O)Nc2ccc3c(c2)OCCO3)nc1N,inactive: 11%
22,Cc1cc(C2=NNC(=Nc3ccc(S(=O)(=O)N4CCOCC4)cc3)SC2)c(C)n1CC1CCCO1 (stereo not given),inactive: 9.42%
23,CCOC(=O)C1=C(N)n2c(s/c(=C\c3cccnc3)c2=O)=C(C(=O)OC)C1c1cccnc1 (stereo not given),inactive: 11.5%
24,COc1ccc(N2CCN(C(=O)C3CC(=O)N(c4ccc(C)cc4)C3)CC2)cc1 (stereo not given),inactive: -3.77%
25,Cc1cc(C(=O)NCCc2ccc(S(N)(=O)=O)cc2)no1,inactive: -6.32%
26,O=C(Nc1nccs1)[C@@H]1CCCN1S(=O)(=O)c1ccc(Cl)cc1,inactive: 21.8%
27,Cc1ccc(C(=O)NCCCNC(=O)COc2ccc(C)c(C)c2)cn1,inactive: -0.508%

row,Compound,growth rescue (activation)
1,CC1CCC(N2CCN(S(=O)(=O)Cc3ccccc3)CC2)CC1 (stereo not given),inactive: 1.18%
2,Cc1ccc(NC(=S)NC(=O)c2ccc(-c3ccc(Cl)cc3)o2)c(O)c1,inactive: 18.7%
3,COc1cccc(CSc2nnc(-c3ccncc3)n2C)c1,inactive: 15.1%
4,COc1cccc(/C(C)=N/Nc2ncc(Cl)cc2Cl)c1,inactive: 7.62%
5,CCC(C)NS(=O)(=O)c1ccc(OCC(=O)NCc2ccccn2)cc1 (stereo not given),inactive: -12.9%
6,CC1=CC2=NC(=O)/C(=C\c3cn(C)c4ccccc34)C(=N)N2O1,inactive: 7.65%
7,CCN1CCN(c2oc(-c3ccccc3)nc2S(=O)(=O)c2ccc(C)cc2)CC1,inactive: -6.33%
8,CCc1ccc(CN2CCCC(CNC(=O)c3cccc(OC)c3OC)C2)cc1 (stereo not given),inactive: 3.42%
9,CCOC(=O)c1c(NC(=O)c2ccc(Br)o2)sc(C)c1CC,inactive: 22%
10,Cc1cc(C(=O)Cn2nnc(-c3ccc(Cl)cc3)n2)c(C)n1-c1ccccc1,inactive: 4.9%
11,CC1=C(CC(=O)NCC(=O)NCC(=O)O)c2cc(F)ccc2/C1=C/c1ccc(S(C)=O)cc1 (stereo not given),inactive: -19.3%
12,COc1ccc(NC(=O)CNC(=O)c2c(C)nn(C)c2Cl)cc1,inactive: 6.23%
13,O=C(NCCc1nc2ccccc2n1Cc1ccc(Cl)cc1Cl)c1ccco1,inactive: -0.784%
14,COc1ccccc1C(=O)Nc1nnc([C@H]2C[C@H](O)[C@@H](CO)O2)s1,inactive: 8.06%
15,CCc1ccc(NS(=O)(=O)c2ccc3[nH]c(=O)[nH]c3c2)cc1,inactive: 8.56%
16,COc1ccc(CN(CC(=O)NCc2ccc(F)cc2)C(=O)CCC(=O)Nc2cc(C)ccn2)cc1,inactive: -13.3%
17,CCc1ccc(OC2(C)CCN(CCOc3ccc(C)cc3)C2)cc1 (stereo not given),inactive: 16.9%
18,O=C(Nc1ccccc1Cl)O/N=C(/c1ccccc1)c1ccccn1,inactive: 24.3%
19,CCOc1cc(N2CCOCC2)c(OCC)cc1NC(=O)COC(=O)c1ccc(Cl)nc1,inactive: -11.3%
20,O=C(Nc1cccc2ccccc12)c1csc(COCCO)n1,inactive: 15%
21,CC1(C(=O)NCC2CC2)Cc2c(-c3ccccc3)ccnc2O1 (stereo not given),inactive: 17.8%
22,CC/C(Cc1ccccc1)=N\NC(=O)c1cc(C)oc1C,inactive: 8.73%
23,O=C(NC(=S)Nc1nc(-c2ccc(Br)cc2)cs1)c1ccco1,inactive: 10.8%
24,O=Cc1c(N2CCOCC2)nc2ccccn2c1=O,inactive: -6.64%
25,C[C@H](NC(=O)c1ccc(Br)cc1)C(=O)NCc1ccc(S(N)(=O)=O)cc1,inactive: 5.95%
26,CC(=O)N[C@@H](Cc1c[nH]c2ccccc12)C(=O)NCc1ccccc1,inactive: -4.21%
27,CC1(C)OC2OC(C(=O)N/N=C/c3ccccc3F)C3OC(C)(C)OC3C2O1 (stereo not given),inactive: -2.23%

row,Compound,growth rescue (activation)
1,O=C(c1ccc(Cl)s1)N1CCN(S(=O)(=O)c2ccc(Cl)cc2)CC1,inactive: -13.3%
2,COc1ccc(OC)c(CN2CCN(S(=O)(=O)c3ccc(NC(C)=O)cc3)CC2)c1,inactive: -1.46%
3,CCOC(=O)/C(=N/Nc1ccc(Br)cc1)N1CC(C)OC(C)C1 (stereo not given),inactive: 15.8%
4,Cc1ccc(-c2csc3ncnc(NCCC(=O)O)c23)cc1,inactive: 17.7%
5,CSc1nnc(C)c(/C=C/NOCc2ccc(Cl)cc2)n1,inactive: -21.1%
6,COc1cccc(C(=O)NCC(=O)n2nc(C)cc2C)c1,inactive: 6.58%
7,COc1ccc(CCN2C(=O)NC(NS(=O)(=O)c3ccc(NC(C)=O)cc3)(C(F)(F)F)C2=O)cc1OC (stereo not given),inactive: 0.0379%
8,c1ccc(-c2cn(-c3ccccc3)c3[n+]2CCS3)cc1,inactive: -1.15%
9,COC(=O)COc1ccc2c(c1C)O/C(=C\c1ccco1)C2=O,inactive: -5.25%
10,CC1(C(=O)NS(=O)(=O)C2CC2)CCN(C(=O)c2c(F)cccc2F)C1 (stereo not given),inactive: 0.358%
11,CCN1C(=O)/C(=C/c2nc3ccccc3c(=O)n2-c2ccc(C)cc2)c2ccccc21,inactive: 14.3%
12,COc1ccc(S(=O)(=O)N2CCC(C(=O)NC3CCCC3)CC2)cc1C,inactive: -7.33%
13,Cc1ccc(NC(=O)CSc2nncn2-c2ccccn2)cc1Cl,inactive: -7.39%
14,CCn1ncc(C(=O)Nc2ccc(S(=O)(=O)N3CCCC3)cc2)c1C,inactive: -0.796%
15,C=CCOc1ccc(/C=N/O)cc1Cl,inactive: 26.9%
16,CC(C)(C)NC(=O)C(c1ccncc1)N(Cc1ccc(F)cc1)C(=O)c1ccc(-c2ccccc2)[nH]1 (stereo not given),inactive: 18%
17,COc1ccc(S(=O)(=O)N2CCCCC2c2cc(C(=O)NC(C)C)no2)cc1 (stereo not given),inactive: 2.59%
18,Cc1ccc2nc(NC(=O)Cn3nc(C)c([N+](=O)[O-])c3C)sc2c1,inactive: 2.05%
19,CCn1c2ccccc2c2cc(NC(=O)CN3CCCC3)ccc21,inactive: -15.2%
20,COc1ccccc1/C=C(/NC(=O)c1ccc(Cl)cc1Cl)C(=O)O,inactive: 0.049%
21,Cc1cccc(N2CCN(C(=O)CCn3c(=O)[nH]c4ccsc4c3=O)CC2C)c1 (stereo not given),inactive: 3.53%
22,CN1C(=O)/C(=C/C=C2/CCCN2C)N(C)C1=S,inactive: -8.51%
23,CC(C)(C)NC(=O)COC(=O)c1ccc(Cl)cc1O,inactive: 2.07%
24,O=C(NN1C(=O)c2ccccc2C1=O)C1CC2CCC1C2 (stereo not given),inactive: -15.5%
25,CCOC(=O)C1(CCOc2ccccc2)CCN(Cc2nccn2CC)CC1,inactive: 2.97%
26,O=C(NCCc1ccccc1F)c1ccc2c(c1)OCCO2,inactive: 16.5%
27,CC(=O)Nc1ccc(CN(C)c2c(C)nc3ccc(C(=O)Nc4ccc(Cl)c(Cl)c4)cn23)cc1,inactive: 2.03%

row,Compound,growth rescue (activation)
1,COCCNC(=O)CSc1ccccc1C(=O)NC1CCSc2ccccc21 (stereo not given),inactive: -2.48%
2,Cc1ccc(NC(=O)COC(=O)CCc2ccccc2)c(Cl)c1,inactive: 13.6%
3,CCOc1ccc(CN2CCNC(=O)C2CC(=O)NCCC2=CCCCC2)cc1 (stereo not given),inactive: -27%
4,Cc1nn(C2CCCCC2)c(N)c1-c1ccccc1,inactive: 20.2%
5,Cc1cc(C)c2nc(-c3cccnc3)cc(C(=O)Nc3ccc(S(=O)(=O)Nc4onc(C)c4C)cc3)c2c1,inactive: 11.7%
6,Cc1c(NS(=O)(=O)c2cc(C(=O)N(C)Cc3ccccc3)ccc2Cl)c(=O)n(-c2ccccc2)n1C,inactive: 11.9%
7,CCC(=O)Nc1ccc(Cl)c(NC(=O)c2ccccc2OC)c1,inactive: 12.1%
8,Cc1cc2c(ncn2C)c(NS(=O)(=O)c2ccc(Cl)cc2)c1C,inactive: 7.18%
9,COc1cc(C(=O)Nc2ccc(C(C)=O)cc2)c(Br)c(OC)c1OC,inactive: 6.43%
10,Cn1cc(CN2CCC(n3nccc3NC(=O)CCc3ccccc3)CC2)cn1,inactive: 11.7%
11,CCN(CC)CCNC(=O)Nc1ccc2c(c1)N(Cc1ccccc1)C(=O)c1ccccc1S2,inactive: 17.7%
12,CCOC(=O)c1cn(CC2CC2)c2cc(F)c(F)cc2c1=O,inactive: 17.3%
13,CC(=O)OCC(=O)Nc1ccc([N+](=O)[O-])cc1Cl,inactive: 4.29%
14,COc1cc2c(cc1OC)C(CC#N)=NC(C)(C)C2,inactive: -0.199%
15,Cc1cc(C)cc(N(CCC(=O)Nc2nnc(C)s2)S(=O)(=O)c2ccc(Cl)cc2)c1,inactive: -8.58%
16,Cc1nn2c(NCCN(C)C)c3c(nc2c1-c1ccccc1)CCCC3,inactive: 8.02%
17,CC(Sc1nc(N)c2c3c(sc2n1)CSC(C)(C)C3)C(=O)Nc1ccccc1 (stereo not given),inactive: 7.45%
18,CC(=O)Nc1ccc2c(c1)OCO2,inactive: 7.26%
19,CCc1ccc(S(=O)(=O)/N=C2\C=C(Nc3cccc(C(=O)O)c3)C(=O)c3ccccc32)cc1,inactive: -20.6%
20,O=C(CNC(=O)c1ccc(F)cc1)NCc1ccc(Cl)cc1,inactive: -3.22%
21,COc1ccc(CCNC(=O)CNC(=O)c2nn(-c3ccc(OC)c(OC)c3)c(=O)c3ccccc23)cc1OC,inactive: -1.29%
22,O=C(NCCCc1ccccc1)C1CCC(CNc2c(N3CCCCC3)c(=O)c2=O)CC1 (stereo not given),inactive: -1.46%
23,COCCN(C(=S)Nc1ccc(C)cc1C)C(C)c1ccco1 (stereo not given),inactive: 16.5%
24,CCCS/C(N)=N/N=C/c1ccccc1O,inactive: 11.5%
